# Test results from the supplement of paper PMC8728848.
# The list shows a part of the results.
# B1: Epa1-NP-mutant-E227G (Candida glabrata), Q6VBJ0 (protein)
# chain: MILNPALFLNKCVCIYTTLILLLLTNGGYATSSNDISLASKDPTTFPLGCSPDITTPKKGLSMELYSYDFRKKGSYPCWDAAYLDPNYPRTGYKSHRLLAKVDGVTGNINFYYHATKGCTPQLGHLPASYNYPKPLTMTNFTMLLYGYFRPKVTGFHTFTISADDLLFVNFGAGNAFDCCRRDSSADHFGNYQAYAIWGSKTAKDELTVHLDAGVYYPIRLFYNNRGYDGALSFTFKTESNENTVSDFSEYFFSLDDTEEGCPGLISYDSSCASVKTSKIIGIDYHTETPNENLVPITKTIYHLGIPCTGTTTTPLCGSGFYDPLANKCVTINTSSTSSVTKTTSHTTSKEVSFHSSISSQKTLIPKSIPSPYGPIKSQSIPTEMETSSEISSSEYAFSDVISTPSHSPYTKKHSSLNSSSYTSTVIHSLTSYSISQGIFSTSLSEQNITSKSSTDKFSTATSMSNNITQSSIIISQFSTNNENYTTTSMHTSSDKISTETLNNSISTTTSILFSNSSTILKNNTTIISSDKDTHYHPVNPTIVCSTNKTEIICASITQPSISNSNNHWSSSVLKFNSTTVRSTLPSSAGSNETSINVPFSSSTESNTSTSSTSTSNSKMVRSTLPSSAGSNETSISVPFSSSTESNTSTSSTSTSNSKMVRSTLPSSAGSNETSINVPFSSSTESNTSTSSTSTSNSKTVRSTPFSSAGIIMTSLSQRNNKSASSYASSNSKCYNTADSCRKVHSTPSYLLTSSYTSEGVDYDCSLVSTKLKINDTNCVNNKHTTKSCLKTSVTTTIPTLEIKTARKSSSNTIGLHSYPTSSPNKSISSAPIIGYISSFKTIKTASPSYQTSDLTTITTITSLNNPGSTAVENTHESNDKSRKTSSNDISSKHSVIKETKDAVESSNKSHQTNTLKCSSIIIASSSHNSYESLGGTTLTLTLSKVYSPQNNDTLPFLEISEVNPSRTVLPESSKMMQYLTSTEERNKTARNTIATNIVSISTFHFEGEGNAIRMGYTQLLLMLIGIIVMNIGT
# What was measured:
# Experiment in all cases: glycan array binding signal (z-score within array); higher = stronger binding
# Settings in all cases: glycan notation: IUPAC condensed, linker removed; mutation: E227G
# [1] = target: Gal3S(b1-3)[Fuc(a1-4)]GlcNAc
# Method in brief: (§1)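 From the Consortium for Functional Glycomics database, 3228 arrays were curated, keeping only those whose protein sequence was available. Binding is given as a within-array Z-score averaged across arrays sharing a protein sequence and across linkers. Negative Z-scores can be read as non-binding.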
# Gal3S(b1-4)Glc = target: Gal3S(b1-4)Glc
# Method in brief: as §1
# Gal3S(b1-4)Glc6S = target: Gal3S(b1-4)Glc6S
# Method in brief: as §1
# Gal3S(b1-4)GlcNAc = target: Gal3S(b1-4)GlcNAc
# Method in brief: as §1
# [2] = target: Gal3S(b1-4)[Fuc(a1-3)]Glc6S
# Method in brief: as §1
# [3] = target: Gal3S(b1-4)[Fuc(a1-3)]GlcNAc
# Method in brief: as §1
# [4] = target: Gal3S(b1-4)[Fuc(a1-3)]GlcNAc6S
# Method in brief: as §1
# Gal3S4S(b1-4)GlcNAc = target: Gal3S4S(b1-4)GlcNAc
# Method in brief: as §1
# Gal3S6S(b1-4)GlcNAc = target: Gal3S6S(b1-4)GlcNAc
# Method in brief: as §1
# Gal3S6S(b1-4)GlcNAc6S = target: Gal3S6S(b1-4)GlcNAc6S
# Method in brief: as §1
# Gal4S(b1-4)GlcNAc = target: Gal4S(b1-4)GlcNAc
# Method in brief: as §1
# Gal4S6S(b1-4)GlcNAc = target: Gal4S6S(b1-4)GlcNAc
# Method in brief: as §1
# Gal6P(b1-4)GlcNAc = target: Gal6P(b1-4)GlcNAc
# Method in brief: as §1
# Gal6S(b1-3)GlcNAc = target: Gal6S(b1-3)GlcNAc
# Method in brief: as §1
# Gal6S(b1-3)GlcNAc6S = target: Gal6S(b1-3)GlcNAc6S
# Method in brief: as §1
# Gal6S(b1-4)Glc = target: Gal6S(b1-4)Glc
# Method in brief: as §1
# Gal6S(b1-4)Glc6S = target: Gal6S(b1-4)Glc6S
# Method in brief: as §1
# Gal6S(b1-4)GlcNAc = target: Gal6S(b1-4)GlcNAc
# Method in brief: as §1
# Gal6S(b1-4)GlcNAc6S = target: Gal6S(b1-4)GlcNAc6S
# Method in brief: as §1
# GalNAc(a1-3)Gal = target: GalNAc(a1-3)Gal
# Method in brief: as §1
# GalNAc(a1-3)GalNAc = target: GalNAc(a1-3)GalNAc
# Method in brief: as §1
# [5] = target: GalNAc(a1-3)GalNAc(b1-3)Gal(a1-4)Gal(b1-4)Glc
# Method in brief: as §1
# [6] = target: GalNAc(a1-3)GalNAc(b1-3)Gal(a1-4)Gal(b1-4)GlcNAc
# Method in brief: as §1
# GalNAc(b1-3)Gal = target: GalNAc(b1-3)Gal
# Method in brief: as §1
# [7] = target: GalNAc(b1-3)Gal(a1-4)Gal(b1-4)GlcNAc
# Method in brief: as §1
# [8] = target: GalNAc(b1-3)Gal(a1-4)Gal(b1-4)GlcNAc(b1-3)Gal(b1-4)Glc
# Method in brief: as §1
# [9] = target: GalNAc(b1-3)Gal(a1-6)Gal(b1-4)Glc
# Method in brief: as §1
# GalNAc(b1-3)GalNAc = target: GalNAc(b1-3)GalNAc
# Method in brief: as §1
# GalNAc(b1-3)GlcNAc = target: GalNAc(b1-3)GlcNAc
# Method in brief: as §1
# GalNAc(b1-4)Gal(b1-4)Glc = target: GalNAc(b1-4)Gal(b1-4)Glc
# Method in brief: as §1
binder,measurement,setting,value
B1,glycan array binding signal (z-score),[1],0
same,glycan array binding signal (z-score),Gal3S(b1-4)Glc,-0.178
same,glycan array binding signal (z-score),Gal3S(b1-4)Glc6S,-0.083
same,glycan array binding signal (z-score),Gal3S(b1-4)GlcNAc,-0.125
same,glycan array binding signal (z-score),[2],0.018
same,glycan array binding signal (z-score),[3],-0.205
same,glycan array binding signal (z-score),[4],-0.019
same,glycan array binding signal (z-score),Gal3S4S(b1-4)GlcNAc,-0.134
same,glycan array binding signal (z-score),Gal3S6S(b1-4)GlcNAc,-0.088
same,glycan array binding signal (z-score),Gal3S6S(b1-4)GlcNAc6S,0.516
same,glycan array binding signal (z-score),Gal4S(b1-4)GlcNAc,-0.27
same,glycan array binding signal (z-score),Gal4S6S(b1-4)GlcNAc,-0.177
same,glycan array binding signal (z-score),Gal6P(b1-4)GlcNAc,-0.136
same,glycan array binding signal (z-score),Gal6S(b1-3)GlcNAc,0.07
same,glycan array binding signal (z-score),Gal6S(b1-3)GlcNAc6S,3.58
same,glycan array binding signal (z-score),Gal6S(b1-4)Glc,0.019
same,glycan array binding signal (z-score),Gal6S(b1-4)Glc6S,13
same,glycan array binding signal (z-score),Gal6S(b1-4)GlcNAc,-0.157
same,glycan array binding signal (z-score),Gal6S(b1-4)GlcNAc6S,12.7
same,glycan array binding signal (z-score),GalNAc(a1-3)Gal,-0.19
same,glycan array binding signal (z-score),GalNAc(a1-3)GalNAc,-0.146
same,glycan array binding signal (z-score),[5],-0.316
same,glycan array binding signal (z-score),[6],-0.08
same,glycan array binding signal (z-score),GalNAc(b1-3)Gal,-0.165
same,glycan array binding signal (z-score),[7],-0.107
same,glycan array binding signal (z-score),[8],-0.14
same,glycan array binding signal (z-score),[9],-0.169
same,glycan array binding signal (z-score),GalNAc(b1-3)GalNAc,-0.259
same,glycan array binding signal (z-score),GalNAc(b1-3)GlcNAc,-0.142
same,glycan array binding signal (z-score),GalNAc(b1-4)Gal(b1-4)Glc,-0.258
